Here are results for two compounds from the CheMixHub viscosity set.

The conditions of this series: 101 kPa.

± gives the uncertainty stated by the source. A number of entries come with more than one value. This list holds those alone. The source may hold further records. The records of an entry repeat one measurement (runs, samples, wells, individuals or studies). What stands in brackets tells the records apart. The letters are not those of the source and start again with each entry.

Broadly, the viscosity is the internal friction of a fluid under shear. A high value points to a thick fluid.

On to `CC(=O)[O-].CC[n+]1ccn(C)c1`, for which the viscosity (298.15 K) is 128.4 ± 4.1 mPa·s [study A] and 126.3 ± 8.3 mPa·s [study B] and 140 ± 8.7 mPa·s [study C] and 132.9 ± 6 mPa·s [study D].
For `NC=O`, the viscosity is 2.918 ± 0.091 mPa·s [study A] and 2.903 ± 0.029 mPa·s [study B] and 2.941 ± 0.13 mPa·s [study C] and 3.18 ± 0.03 mPa·s [study D] (303.15 K); 2.607 ± 0.081 mPa·s [study A] and 2.593 ± 0.069 mPa·s [study B] and 2.69 ± 0.07 mPa·s [study C] and 2.587 ± 0.026 mPa·s [study D] and 2.384 ± 0.11 mPa·s [study E] (308.15 K); 2.096 ± 0.065 mPa·s [study A] and 2.043 ± 0.054 mPa·s [study B] and 2.099 ± 0.021 mPa·s [study C] and 2.49 ± 0.02 mPa·s [study D] and 1.951 ± 0.091 mPa·s [study E] (318.15 K).
